Laboratory results from PubChem BioAssay AID493035 (The Scripps Research Institute Molecular Screening Center, 2011).
Screen size: about 2,000 compounds; about 45 (2%) were called active.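 The calls were made as follows: active = inhibition above the mean of all tested compounds plus 3 SD (cut at about 49% in these data); inactive = the rest.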 The list shows a part of the results.

Each compound was assayed against Perilipin-5 (Homo sapiens) + 1-acylglycerol-3-phosphate O-acyltransferase ABHD5 (Homo sapiens) (UniProt Q00G26+Q8WTS1) (assay: blockers of ABHD5 binding to perilipin-5 – cell lysate, split luciferase complementation, luminescence, NIH validation set, pilot screen (AID 493035;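 also: 0% = DMSO only wells while the 100% control is not stated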)). Settings: split G. princeps luciferase complementation, lysates, 4 h; at 7.9 µM, active compounds read high.
Chain of UniProt Q00G26 (Q00G26 whole entry, looked up): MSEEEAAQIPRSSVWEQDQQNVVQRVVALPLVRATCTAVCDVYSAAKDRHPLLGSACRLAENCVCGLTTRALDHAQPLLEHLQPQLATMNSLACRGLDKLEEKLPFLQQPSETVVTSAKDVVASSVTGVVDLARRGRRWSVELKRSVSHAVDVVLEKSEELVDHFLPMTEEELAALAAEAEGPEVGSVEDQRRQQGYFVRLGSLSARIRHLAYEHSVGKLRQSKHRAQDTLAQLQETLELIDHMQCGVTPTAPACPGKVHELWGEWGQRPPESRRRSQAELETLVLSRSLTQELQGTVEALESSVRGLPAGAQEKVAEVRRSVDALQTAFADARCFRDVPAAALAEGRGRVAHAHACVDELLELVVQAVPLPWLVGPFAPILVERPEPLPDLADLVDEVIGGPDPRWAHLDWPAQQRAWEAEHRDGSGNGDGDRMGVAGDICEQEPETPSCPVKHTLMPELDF
Chain of UniProt Q00G26 (Q8WTS1 whole entry, looked up): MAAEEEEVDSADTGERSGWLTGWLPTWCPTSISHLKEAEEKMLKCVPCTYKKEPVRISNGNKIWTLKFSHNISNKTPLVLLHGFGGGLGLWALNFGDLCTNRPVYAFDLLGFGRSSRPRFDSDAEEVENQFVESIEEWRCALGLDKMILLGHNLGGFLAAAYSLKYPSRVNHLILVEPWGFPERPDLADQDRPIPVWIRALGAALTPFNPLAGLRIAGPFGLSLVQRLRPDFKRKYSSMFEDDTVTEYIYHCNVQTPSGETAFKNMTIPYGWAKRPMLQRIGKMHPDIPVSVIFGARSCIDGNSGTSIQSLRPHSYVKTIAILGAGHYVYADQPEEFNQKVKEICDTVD

inhibition, inactive:
Cc1oc2cc(O)cc(O)c2c(=O)c1-c1ccc2c(c1)OCCCO2 12.4%
CC(C(=O)O)c1cccc(C(=O)c2ccccc2)c1 (configuration not stated) -6.25%
Cc1ccc([N+](=O)[O-])cc1NC1OC(CO)C(O)C1O (configuration not stated) 5.59%
Cc1ccccc1NC(=O)c1c(C)cc(=O)oc1C 1.27%
O=C(CNC(=O)OCc1ccccc1)Oc1cc2oc(=O)cc(-c3ccccc3)c2cc1Cl -6.75%
CC1(C)Cc2nc3oc4c(NCc5ccccc5)ncnc4c3cc2CO1 9.62%
CCCC1O[C@@H]2C[C@H]3[C@@H]4CCC5=CC(=O)C=C[C@]5(C)[C@H]4[C@@H](O)C[C@]3(C)[C@]2(C(=O)CO)O1 (some centres not stated) -4.15%
CC(=O)N1CCN2C(=O)C1CCCC(=O)c1cc(C(C)C)ccc12 (configuration not stated) 0.71%
Cn1cnc2c1c(=O)n(CC(O)CO)c(=O)n2C (configuration not stated) -8.03%
CC(=O)OCC(=O)[C@@]1(O)[C@H](C)C[C@H]2[C@@H]3CCC4=CC(=O)C=C[C@]4(C)[C@@]3(F)[C@@H](O)C[C@@]21C -10.2%
Cc1ccccc1NC(=O)NCCc1c[nH]c2ccccc12 -8.65%
Nc1nc2c(ncn2COCCO)c(=O)[nH]1 -4.46%
O=c1c2[nH]c3ccccc3c2ncn1CCC1=CCCCC1 -6.62%
COc1ccc2nc(Nc3nc(CSc4ccc(C)cc4)cc(=O)[nH]3)nc(C)c2c1 4.18%
O=C(O)c1ccc(OCCn2ccnc2)cc1 -0.12%
C#C[C@]1(O)CC[C@H]2[C@@H]3CCc4cc(O)ccc4[C@H]3CC[C@@]21C 10.8%
Cc1occc(=O)c1O 2.41%
CCOCCn1c(C(C)O)nc2ccccc21 (configuration not stated) -12.2%
COc1cc2c(cc1OC)C(c1ccccc1)=NCC2 3.69%
COc1ccc(C(=O)Nc2cccnc2)cc1C(=O)Nc1cccnc1 0.1%
CCC12CN3CC(CC)(CN(C1)C31C(=O)N(C)c3ccc(C)cc31)C2=O (configuration not stated) 5.09%
N/C(=N\OC(=O)c1cccc(Br)c1)c1ccncc1 0.43%
Nc1cccc2nc3ccccc3cc12 -7.62%
O=C(NC1CC1)C1CCN(C2CCN(C(=O)Cc3ccc(F)cc3)CC2)CC1 -10.8%
CCCc1cc(=O)[nH]c(=S)[nH]1 -2.08%
COC(=O)CN1C(=S)N(c2ccc(F)cc2)C(=O)C1CC(=O)Nc1ccccc1 (configuration not stated) 4.01%
COc1ccc(CCN(C)CCCC(C#N)(c2ccc(OC)c(OC)c2)C(C)C)cc1OC (configuration not stated) -9.72%
CNCCCC1c2ccccc2C=Cc2ccccc21 -7.68%
Cc1ccsc1/C=N\NC(=O)c1ccc2c(c1)OCO2 -0.81%
O=C(O)CC(O)C(=O)O (configuration not stated) -4.33%
O=C(Nc1cccc(C(=O)O)c1)/C(=C\c1ccccc1)NC(=O)c1ccccc1 -2.05%
C[C@]12CCC(=O)C=C1CC[C@@H]1[C@@H]2[C@@H](O)C[C@@]2(C)[C@H]1CC[C@]2(O)C(=O)CO -4.66%
CC(C)N(Cc1nccn1C)C(=O)CC1C(=O)NCCN1Cc1ccccc1C(F)(F)F (configuration not stated) -10.4%
COc1ccc(-c2coc3c(CN4CCOCC4)c(O)ccc3c2=O)cc1 -12.6%
CC(=O)N1CCN(c2ccc(NC(=O)/C=C/c3ccccc3)cc2)CC1 5.07%
CC/C(=C1/C(=O)CC(C)(C)C(C(=O)OC)C1=O)N1CCCC1 (configuration not stated) 6.45%
CC(=O)c1c(N)nc2n(c1=O)CCCCC2 -12.3%
O=C(O)[C@@H](O)c1ccccc1 0.33%
C/C(CCc1oc2ccc(Cl)cc2c1-c1ccc(C)o1)=N\O 26.3%
Nc1nc(Cl)nc2c1ncn2[C@H]1C[C@H](O)[C@@H](CO)O1 -3.58%
Fc1ccc(C(c2ccc(F)cc2)N2CCN(C/C=C/c3ccccc3)CC2)cc1 -5.56%
CCOC(=O)C(=O)Nc1ccc(Oc2ccccc2)cc1 -8.65%
COc1ccccc1C(=O)Nc1cc2cc(Br)ccc2oc1=O -7.35%
CCCCC(=O)O[C@H]1CC[C@H]2[C@@H]3CCc4cc(O)ccc4[C@H]3CC[C@]12C -8.52%
CC(=O)C1=C(O)C(=O)N(CC(=O)O)C1c1ccccc1Cl (configuration not stated) 0%
N=C(N)c1ccc(OCCCCCOc2ccc(C(=N)N)cc2)cc1 -0.96%
CCN(CC)CCN1C(=O)C(=O)/C(=C(/O)c2c(C)[nH]c(C(=O)OC)c2C)C1c1cccnc1 (configuration not stated) -2.32%
CC1(C)Oc2ccc(C#N)cc2[C@@H](N2CCCC2=O)[C@@H]1O 4.44%
O=C(NCc1ccccc1Cl)NC(=O)c1ccccc1 3.04%
CC[N+](C)(C)Cc1ccccc1Br -4.2%
Cc1oncc1C(=O)Nc1ccc(C(F)(F)F)cc1 1.09%
COc1ccc(C(Cl)=C(c2ccc(OC)cc2)c2ccc(OC)cc2)cc1 -4.18%
O=C(O)c1cccnc1Nc1cccc(C(F)(F)F)c1 -0.4%
CC(CCc1ccccc1)NCC(O)c1ccc(O)c(C(N)=O)c1 (configuration not stated) -7.73%
Cc1ccc(Cl)c(OCCCN(C)Cc2ccccc2)c1 -11%
CCc1cc2c(=O)c(-c3ccc4c(c3)OCCO4)coc2c(CN2CCCCC2C)c1O (configuration not stated) 19.7%
Cc1[nH]nc(-c2ccc(O)cc2O)c1Oc1ccccc1 1.88%
C[C@]12CCC(=O)C=C1[C@H](O)C[C@@H]1[C@@H]2[C@@H](O)C[C@@]2(C)[C@H]1CC[C@]2(O)C(=O)CO -2.81%
CN(Cc1c(C(=O)N(C)Cc2ccccc2)nc2ccccn12)CC1Cc2ccccc2O1 (configuration not stated) 6.36%
N/C(Cc1ccc(Cl)cc1Cl)=N\OC(=O)c1ccc(Br)o1 4.39%
OCCC1CN(Cc2nc(-c3ccccc3)cs2)CCN1Cc1ccc(F)cc1 (configuration not stated) -5.63%
c1ccc2c(c1)CCOC2CNCCCN1CCCCC1 (configuration not stated) -16.3%
CCN1C(=O)C(CC(=O)Nc2ccc(OC)cc2)N(CCc2ccc(F)cc2)C1=S (configuration not stated) -1.45%
Cc1ccc2c(c1)c1c3n2CCCNC3CCC1 (configuration not stated) 0.07%
O=C(NCc1ccc(N2CCCC2=O)cc1)c1cccc(Cl)c1 -4.06%
COc1ccc(C2N3CC4(C)CN2CC(C)(C3)C4)cc1OC (configuration not stated) 2.2%
COc1ccc2c(c1OC)C(=O)OC2C1c2c(cc3c(c2OC)OCO3)CCN1C (configuration not stated) -9.84%
CCCN1C[C@H](CSC)C[C@@H]2c3cccc4[nH]cc(c34)C[C@H]21 1.67%
COc1ccc(CCNC(=O)c2ccc(Cl)cc2)cc1OC -3.15%
CCC(=O)Oc1ccc(/C(CC)=C(\CC)c2ccc(OC(=O)CC)cc2)cc1 4.75%
COc1ccc2[nH]cc(C(=O)CCl)c2c1 11.7%
CCN1C(=O)C(CC(=O)Nc2ccc(F)cc2)N(Cc2ccco2)C1=S (configuration not stated) 22%
Nc1cccc(C(=O)O)c1 -4.68%
COc1cc(CNCc2ccc(OC)c(OC)c2OC)cc(OC)c1 -5.82%
Cn1c(SCC(=O)c2ccccc2)nnc1-c1ccncc1 -1.23%
CN(C)CCCN1c2ccccc2Sc2ccccc21 -13%
COc1ccc(N2C(=O)[C@@H]3[C@H](C2=O)[C@H]2c4ccccc4C=CN2[C@@H]3C(C)=O)cc1 3.22%
Cc1cc(C(C)(C)C)c(O)c(C)c1CC1=NCCN1 -1.18%
Nc1c(C(=O)c2ccccc2)oc2ccccc12 -1%
CC(=O)N(CCC(Cc1ccccc1)c1ccco1)Cc1ccco1 (configuration not stated) 39.1%
C[C@]12CC[C@@H]3c4ccc(O)cc4CC[C@H]3[C@@H]1CC[C@@H]2OC(=O)CCC(=O)O 6.35%
CCO/C([O-])=N/c1c[n+](N2CCOCC2)no1 -7.79%
COc1ccc(CCNc2ncnc3c2[nH]c2cc(OC)c(OC)cc23)cc1OC 9.07%
O=C1C(=O)c2ccccc2C(O)=C1c1ccccc1F 2.39%
COCCOC(=O)c1c(C)oc2ccc(OCc3cc(C(=O)OC)oc3C)cc12 -8.93%
COc1cc(C(=O)NCCCCCC(=O)O)cc(OC)c1OC -0.03%
COc1cc(OC)c(C2C(C#N)=C(N)OC3=C2C(=O)CC(C)(C)C3)cc1OC (configuration not stated) 1.89%
Cc1[nH]c2ccccc2c1/C=C/c1nc2ccccc2c(=O)n1CCO 8.95%
CC1=C(/C=C/C(C)=C/C=C/C(C)=C/C(=O)O)C(C)(C)CCC1 13.8%
O=C(Nc1ccccc1)c1ccccc1CCc1ccccc1 -5.47%
Cc1ccc(CN2CCN(CCCc3ccccc3)CC2CCO)cc1 (configuration not stated) -2.89%
CCN(Cc1cnn(C)c1)Cc1nc(C(c2ccccc2)c2ccccc2)no1 1.77%
CCCCCC#CCC#CCC#CCC#CCCCC(=O)O 38.3%
Cc1cc(=O)oc2cc(OC(C)C(=O)NCC3CCCO3)ccc12 (configuration not stated) 2.43%
O=C(/C=C/c1ccco1)N1CCN(c2ccccc2)CC1 2.96%
O=C(O)/C=C/c1ccc(O)c(O)c1 -1.05%
O=C(Nc1ccc(Cl)cn1)Nc1ccccc1Cl -9.93%
